Results as given in the RNAGym collection of RNA variant scans (doi:10.1073/pnas.2313332121).
This sample is rich in variants without activity.

B1: TPR 5TU (parent)
chain: GGAUCUUCUCGAUCUAACAAAAAAGACAAAUCUGCCACAAAGCUUGAGAGCAUCUUCGGAUGCAGAGGCGGCAGCCUUCGGUGGCGCGAUAGCGCCAACGUUCUCAACUAUGACACGCAAAACGCGUGCUCCGUUGAAUGGAGUUUAUCAUG

Variants of: B1
Test: polymerase ribozyme fitness, log enrichment relative to wild type (log ratio); higher = more active; in vitro selection for triplet polymerase activity
In short: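 Genotype fitness is the logarithm of its enrichment divided by wild-type enrichment, using inverse-variance-weighted averages of replicates. That logarithm is base 2. Enrichment was measured by Illumina sequencing of input and output libraries from one triplicate in vitro selection round, with frozen incubation at −7 °C, on PCR-built, transcribed mutant libraries of each subunit of a heterodimeric triplet polymerase ribozyme, retaining genotypes with ≥10 input reads and ≥1 read per output.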

Point of comparison: U55A A106C C125G, “polymerase ribozyme fitness (log ratio)” value -1.63. Against it:
- C54G C93A C103U — lower, ≤ -4.2
- C54U G74C C76G C123U — lower, ≤ -4.2
- U55A A91U G143A — lower, ≤ -4.2
- C54U G86A C96U C105U C129G — lower, ≤ -4.2
- C54G A89G G92C G100A — lower, ≤ -4.2
- U55A C63U A142U — higher, -0.552
- C54G G58C A122G G124U — lower, -2.2
- C54G G62C C76U G83U A115C — lower, ≤ -4.2
- U55A C79U C85U — lower, -3.3
- C54G C57A G74A A91C C95U C132A — lower, ≤ -4.2
- C54A G70A C95U A120G — lower, -3.62
- C54U U151C — lower, -3.65
- C54U G58A A64C G71A — lower, ≤ -4.2
- C54U G67C C93G U102C U134A U135A A142U — lower, ≤ -4.2
- U55A G58U G59U C75G C85A C103G A115U — lower, ≤ -4.2
- C54G U55C C85U U90A G128U — lower, ≤ -4.2
- C54G G68U — lower, ≤ -4.2
- C54U A73G G83C A97G U134C G140A — lower, ≤ -4.2
- C54A C118A — within 0.2 log units, -1.5
- C54U A110U — lower, ≤ -4.2
- C54A C105U A121G — higher, -0.876
- C54A G58C C79A — lower, ≤ -4.2
- U55A C63G A91U G92A G100C — lower, ≤ -4.2
- C54U U82G C95A A119G — lower, -2.04
- U55A C85G C114A A142C U151A — lower, -4.19
- C54G C85U U90A — lower, ≤ -4.2
- U55A A89G — higher, -1.16
- C54G U56A C57A G81U C93U — higher, -0.912
- C54U G67A G74U C75U A97U U102G U139A — lower, ≤ -4.2
- C54G G94A C108A C125U — lower, ≤ -4.2
- C54A U55C C79A G86C C103G A147C — lower, ≤ -4.2
- U55A C79U G83A C93A A97C A138U — lower, ≤ -4.2
- C54G G92C A106G — lower, -2.99
- U55A C75G C93A C105G — lower, ≤ -4.2
- C54U G92C A121U — higher, -0.244
- C54G C93G — lower, ≤ -4.2
- C54G C93A — lower, -4.19
- C54A U56G U78G U82G C114A U144C — lower, ≤ -4.2
- C54G C87U U90A — lower, ≤ -4.2
- U55A C57G A89U G136C — lower, -3.69
- C54A G141U A142C — lower, ≤ -4.2
- C54U A107U U111G U135A U146C — lower, -4
- U55A A89G U148G — lower, ≤ -4.2
- C54U G84U — lower, -2.22
- U55A G58C — higher, -0.661
- C54U C76G C95U U101C — lower, ≤ -4.2
- C54U U77G G83C A150U — lower, ≤ -4.2
- C54U C96A C105G G124U — lower, -3.42
- C54U A89C C131U — higher, 0.237
- U55A A115U U127G U135A U145A — higher, -1.32
- C54A U90C C95A C114G G133A — lower, ≤ -4.2
- C54A U56G C95A A120G — higher, -1.33
- C54U C85G C93U A97C A137U U139G — lower, ≤ -4.2
- C54G U77A C125G — lower, ≤ -4.2
- U55A C63U C85U C105U — higher, 0.719
- C54U C87G C129G — lower, ≤ -4.2
- C54U G58C A137G U151G — lower, ≤ -4.2
- U55A G59A C75U G92U C99G C129G U139G — lower, ≤ -4.2
- C54U G83A G140U G143A — lower, ≤ -4.2
- C54U C87A C99U U109G G140C — lower, ≤ -4.2
- C54U G59C A60U A66C — lower, ≤ -4.2
- C54G C57A C85A G92A G126A — lower, ≤ -4.2
- C54U U56A C118U — higher, -0.674
- C54U C76U C123A U139G U146C A150C — lower, ≤ -4.2
- C54G A91C A98G A106U C108A — lower, ≤ -4.2
- C54G A97C U101G U135G — lower, ≤ -4.2
- C54U C85U G88U A89U C99U C105G — lower, ≤ -4.2
- U55A C95A G143A U144C — lower, -3.04
- C54U A91U — lower, ≤ -4.2
- C54G C76A C85A G143A — lower, ≤ -4.2
- U55A A66U C79U G80C C87G C116U U145G — lower, ≤ -4.2
- U55A C75U G92A U104G G133U C149U — lower, ≤ -4.2
- U55A A91U G136A — lower, ≤ -4.2
- C54U G92A A115C A138C — lower, ≤ -4.2
- U55A A60C A66C C96U U102C C118A — lower, ≤ -4.2
- U55A C125A G141A — lower, -4.12
- C54U U56A G86A U102A C116A — lower, -2.55
- C54G C75U — lower, -1.86
- C54U C87U — higher, -1.08
- U55A A91G G92A — lower, ≤ -4.2
- U55A A91C G143U — lower, ≤ -4.2
- U55A G62A C69G G71A — lower, ≤ -4.2
- C54U C69U C75U A107C A119C G141U — lower, ≤ -4.2
- C54U A73G G92U C96U C118G G141C — lower, ≤ -4.2
- U55A A142U — higher, -0.464
- U55A C105A — higher, -0.692
- U55A C105G — within 0.2 log units, -1.73
- C54G G133U U144G A150U U151G — lower, ≤ -4.2
- C54U C63A C149U — within 0.2 log units, -1.67
- C54U C57A C75G C87G — lower, ≤ -4.2
- C54G G88C G112U — lower, ≤ -4.2
- C54A G62A A91C A110G — lower, ≤ -4.2
- C54A G65U C76A G81A C108G U145A — lower, ≤ -4.2
- U55A C76A G84C G86C — lower, ≤ -4.2
- C54U U56C C93U A150U — higher, 0.278
- U55A C76A C114U — lower, -3.91
- C54U A60C C99U — lower, -3.17
- U55A C57A C95U — higher, -0.372
- U55A C76A A115G A121C — higher, -1.09
- C54U G68A G84C C85G G124A — lower, ≤ -4.2
- U55A C87G C99A G128A — lower, ≤ -4.2
- U55A G59C C72A C99G G141U — lower, ≤ -4.2
- C54U U56A G71A A107C A150C — lower, ≤ -4.2
- C54U C63G G67C G143A — lower, ≤ -4.2
- U55A C75G C132G — lower, ≤ -4.2
- C54A U61G G68C G83U A115G U127A A138U — lower, ≤ -4.2
- C54U C57U G100C — lower, ≤ -4.2
- C54U C85A — lower, -2.3
- U55A C93U U151A — lower, ≤ -4.2
- C54U C75G A110U A142G — lower, ≤ -4.2
- C54U G59U — higher, 0.271
- C54A C96G C105U U144C — lower, -2.85
- C54U A121U — higher, 0.0158
- U55A C85A C125A — within 0.2 log units, -1.75
- U55A A66U C75U C79G G86A C105U A106U A119U A122U G124U G141A — lower, ≤ -4.2
- C54U A97C — higher, -0.294
- C54G U130G — lower, ≤ -4.2
- C54U U55C C72U C87A — lower, ≤ -4.2
- C54G C75G G86U G92C G124U C125A A137C U151C — lower, ≤ -4.2
- C54U G58C — higher, -0.858
- C54A G70C C108U C123U U134C — lower, ≤ -4.2
- U55A G58C U90C — lower, ≤ -4.2
- U55A C85A C93U U134A A138G — lower, ≤ -4.2
- C54U U61A C76U U82A G126A — lower, ≤ -4.2
- U55A C87G U101G G143A — lower, ≤ -4.2
- C54U U77C G88A C96U A106C — lower, ≤ -4.2
- C54U C96U C103G C114U — lower, ≤ -4.2
- C54U G59C G83A G117U — higher, -0.252
- U55A A91U C114U — lower, ≤ -4.2
- U55A C96A — higher, -1.21
- C54U C75G — lower, -3.81
- C54U G86C A138C G140A A150G — lower, ≤ -4.2
- C54G C76U U77C C87A G126U — lower, ≤ -4.2
- C54U C63A G92A G128A U148G — lower, ≤ -4.2
- C54U U61A A106G G152C — lower, ≤ -4.2
- C54U C75A C96U — lower, ≤ -4.2
- C54U A60C C75A A91U C96U A97G A107C G136A A137U — lower, ≤ -4.2
- C54U G59C A66G C99A G140A A147C — lower, ≤ -4.2
- C54A G70U G94A — lower, -4.02
- C54A U101G C108U A115U G117U C129U G133A — lower, ≤ -4.2
- C54U C103A — lower, -2.22
- C54A U55A U56A C96A G141C — lower, -4.08
- C54U C99U — higher, -0.322
- C54G U90G — lower, ≤ -4.2
- C54U G84A U102G — lower, -4.14
- U55A C85A G100A A121G C131A — lower, ≤ -4.2
- C54U U55G C85A C103U — lower, ≤ -4.2
- C54G G81C A107U A113C A119U — lower, ≤ -4.2
- U55A A66C — lower, ≤ -4.2
- C54A G126U C131G — lower, ≤ -4.2
- C54G A97C G124A — higher, -0.735
- C54G A73G C79A U82G C87U A122U G141C — lower, ≤ -4.2
- U55A C79U — lower, -2.74
- C54U A66G C96A G136A — lower, ≤ -4.2
- C54U C57A G68C G81U G83A A91C — lower, ≤ -4.2
- C54U G92C — higher, -1.07
- C54U G92A — lower, -3
- C54U C57G G84U C85U C132U — lower, -3.94
- U55A G62C G71U C76A U77G C114U A121C — lower, ≤ -4.2
- C54U G58A G80A C96U G124A G143C — lower, ≤ -4.2
- C54A G83C G117A U151G — lower, ≤ -4.2
- C54G C76A C85G — lower, -2.78
- C54U C93U C105G G126C — lower, -2.01
- U55A G59C C103U U104G — lower, -3.29
- C54U G136A — higher, 0.306
- C54A G58A A91U C95A — lower, ≤ -4.2
